Data reported in article PMC12136788.
Some of the results follow.

T1: UNK ZnF1-3 (human, UniProt Q9C0B0 31-174)
T1 sequence: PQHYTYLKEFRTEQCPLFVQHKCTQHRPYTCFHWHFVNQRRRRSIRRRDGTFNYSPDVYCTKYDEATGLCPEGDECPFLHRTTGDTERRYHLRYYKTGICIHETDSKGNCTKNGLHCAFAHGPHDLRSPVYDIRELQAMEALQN

B1: chr1:46159212:46159213:+_ENSG00000159596_ENST00000372025|hu_mus|hu_hu_hu_mus_True|58_88 (ssRNA)
RNA: GGGAGUUCUACAGUCCGACGAUCUCUGAUCCCUCCCAAGAAAGCUAGGAAACUGGCUCCAUAAGCCAUCUGAGUGAAAGCUAAUAUGGGGAUAUAAGACUUUGUUAUUACCAUGAGAAGUGGGGGAGCAGUAAAGGGGAUUAACAACAGAGGAUUGAGCAUCA
B2: 13013063_13017349_405_CDS_ENSMUSG00000031442_ENSMUST00000123811|mouse|control|control (ssRNA)
RNA: GGGAGUUCUACAGUCCGACGAUCAGCCUUUGCCCUUCUCAGGGGGCUUUGGUAACGAUGAGCUCACGUAGCCUUCCAGGCUGAGCGGGUCCGUCUUCCGGUCUUCGAGCUUCUUGACAUUUCUUGUGUUCCCUUUUGUGGGACCAACAGAGGAUUGAGCAUCA
B3: 41434223_41434343_255_3pUTR_ENSMUSG00000021365_ENSMUST00000163623|mouse|control|control (ssRNA)
RNA: GGGAGUUCUACAGUCCGACGAUCCCCGGUUCCCUGGGACAAUGCCUUGGCGACCGUGGAGGGAACACAGCCACCAUCCCUCAAGCCCUCCUGUGUUCUGCUCUAUGACAGUUAAGAUGUCUCCCUUGCGGAAGGCCAGCUCCUCAACAGAGGAUUGAGCAUCA
B4: chr2:216981417:216981418:+_ENSG00000079246_ENST00000392132|hu_hu|hu_hu_hu_mus_True|48_98 (ssRNA)
RNA: GGGAGUUCUACAGUCCGACGAUCCUGAUACUGGUCCCCACCAGAAAGGGCAUUAUCAGUGCCAUCUGUGCCAUAGAGGACUAACGCAAUCUCAUCCUUGCUCUCCGAAAAUACCUGUCGUUGGACAAACAUAGUCAUCACUUUCAACAGAGGAUUGAGCAUCA
B5: chr4:130382032:130382033:+_ENSMUSG00000025743_ENSMUST00000070478|mus_mus|FALSE|FALSE (ssRNA)
RNA: GGGAGUUCUACAGUCCGACGAUCCCAGGCCUUGGUAUCUUUAUCUUUAUCCAUCUGACCCUCUCCUCCUUCUCUUAUUUAAGUUUUGGCCAUGAACUCAGGACAGGGUUGGUUAAUAAACAGGUUAUAGGGAGAGAACGGGUACAACAGAGGAUUGAGCAUCA
B6: chr1:163112212:163112213:-_ENSG00000143248_ENST00000313961|hu_hu|hu_hu_hu_mus_False|1_1 (ssRNA)
RNA: GGGAGUUCUACAGUCCGACGAUCUUUUAUUAUCAGUAAGAGUGAGUUACAUACUAGGCAAAGUAUUGGAUACAAUAAUCAGGAAACAAACACUAUUGGUCCAGAAUUUAAAACUUUAUGAGCGAAGUGCUGGCACAGGAUUUACAACAGAGGAUUGAGCAUCA
B7: chr10:7844279:7844280:+_ENSG00000165629_ENST00000356708|hu_hu|motif|central (ssRNA)
RNA: GGGAGUUCUACAGUCCGACGAUCCUCAGAAGCAUUCUUGCUGGCAUUGUCCAUGGCUGUCAUCCUGGCACUCUGCUCACGGGUGGUGGACUCCUUCAGAGAGUAGUAGAUGAUGUUGGCCAGAUUGUAUUCUUGGUAAUUUUGCAACAGAGGAUUGAGCAUCA
B8: chr4:115894766:115894767:+_ENSMUSG00000028698_ENSMUST00000030464|mus_hu|mus_mus_mus_hu_True|8_78 (ssRNA)
RNA: GGGAGUUCUACAGUCCGACGAUCUUCCACACGGAAAUGUACUUCGGGUUUUCCAACGCCAGUACAAAGUCCGGCCAAACUACCCGAACAGGGUCCUCCCCCUCUCUCCUACAGAACACAACAAAAUAACAAAAUACUUUCAAGCAACAGAGGAUUGAGCAUCA
B9: chr1:29069439:29069440:+_ENSG00000198492_ENST00000541996|hu_mus|FALSE|FALSE (ssRNA)
RNA: GGGAGUUCUACAGUCCGACGAUCGCUGGUUUUGGAGGAGCAAUAGUAGCUGGAGGCAAACUGCUAGAAGCCACAAUGUUACUAGUGAUGGACCCACUACCAACAGCAGAGCCUACAACUUUUGGAACACUGCUUGCAACUUCUCAACAGAGGAUUGAGCAUCA
B10: chr11:87793471:87793472:-_ENSMUSG00000020483_ENSMUST00000020775|mus_mus|mus_mus_mus_hu_False|18_68 (ssRNA)
RNA: GGGAGUUCUACAGUCCGACGAUCUGGACUUGAAAAUAAAAGAAUAAGCUGGAUCCCCCACCCCCCCACAGUGUCAACCCUACACGAGAGUUUUGAAGGCGACUCAUGAAAAUCAGCCUCAAUUGGCGCAAUGACCACCCCACCCAACAGAGGAUUGAGCAUCA
B11: chr19:16212804:16212805:+_ENSG00000167460_ENST00000300933|hu_mus|hu_hu_hu_mus_False|58_68 (ssRNA)
RNA: GGGAGUUCUACAGUCCGACGAUCAACAAUUCUGGAGUGAAGGAAAGAUGUAACAUGGAACAGCAUUCCAUCUAUUAAUUACUAUAUAUGGGCAACAAUGAUCACCCCAGCAUUCUCGCUUGGAAUGCUUAAAGACAAUCUGUUCAACAGAGGAUUGAGCAUCA
B12: 82114108_82114841_502_3pUTR_ENSMUSG00000022456_ENSMUST00000023095|mouse|control|control (ssRNA)
RNA: GGGAGUUCUACAGUCCGACGAUCUUCGUACUGUUCGUUGAUGUAUUUCUCAAUGGGCUCCCAGCAGUUUUCAUUGUUGAUCUGGUCUCCAAAGCCUGGUGUGUCGAUGACUGUCAGCUUCAUUUUGACACCACCUUCCUCUAUCAACAGAGGAUUGAGCAUCA
B13: chr1:225611761:225611762:-_ENSG00000143815_ENST00000272163|hu_mus|hu_hu_hu_mus_True|18_38 (ssRNA)
RNA: GGGAGUUCUACAGUCCGACGAUCCCAGGCCAUCGGCCUCUGACCACUUCACCCUCAACAAACUUCCUACUUGGCAUUUUCUAAAAUUAGUCUGGCCCAGGUUCCGGGGGAACUCCAGACGGCUCCCGACAGUCACCAGCAGCCCAACAGAGGAUUGAGCAUCA
B14: chr13:100204638:100204639:-_ENSMUSG00000052727_ENSMUST00000064762|mus_hu|motif|central (ssRNA)
RNA: GGGAGUUCUACAGUCCGACGAUCAGGAGUGGGCACCUGGCCAGUGAGAUCCUUUUGGGUGGCCAGUGGCUGCUUCAGAAAGUCGGGAUGUUUGAGCUUUUCCAACCCUUCCAGGAUGUUGUACUGGGUGCUGUUCCCAGGAAACAACAGAGGAUUGAGCAUCA
B15: chr18:24791317:24791318:+_ENSMUSG00000024271_ENSMUST00000025120|mus_mus|motif|central (ssRNA)
RNA: GGGAGUUCUACAGUCCGACGAUCACUUCCAGUGAAGAAGUACUUGUUAUCAGGACUCCAGUCACAAGACCAAAUGAUUCGGCGGUGCACAGAAGUAAUUUUGUUGGUGAAUGCAAAGAGACUAAAAAAUGGAUCAAACUCCGACAACAGAGGAUUGAGCAUCA
B16: 42180163_42180283_7225_3pUTR_ENSMUSG00000061080_ENSMUST00000099761|mouse|control|control (ssRNA)
RNA: GGGAGUUCUACAGUCCGACGAUCUUUUCCUACCCAUGAAAGGCUAUUAGGCUACAGUUCAACUGUUACAUUUCCCAAUAUUACGAACAAGGCAGCCACCUCAGCUAUUUUGGUGCCCUCGCUUUAAUAUGAAAAUGCCUUUCCCAACAGAGGAUUGAGCAUCA
B17: chr10:41618152:41618153:+_ENSMUSG00000038332_ENSMUST00000041438|mus_mus|motif|central (ssRNA)
RNA: GGGAGUUCUACAGUCCGACGAUCUUGCAUCUCAUCCACACUGUGAUUGCCAUUUGUAAUGUCACAGAUGCAGUAGUUACGGACAGAAGGCGGUCUGAAGGUGUGGCCACCAUCGCAAUGAAUCUCUGGACUAAUUCCACAGCCCAACAGAGGAUUGAGCAUCA
B18: chr18:70676519:70676520:-_ENSMUSG00000038425_ENSMUST00000161542|mus_hu|FALSE|FALSE (ssRNA)
RNA: GGGAGUUCUACAGUCCGACGAUCGCGUGAAGUAGUUGAUAAUGAUGGCAUUAAAUAAUAAUCAAUAAGCCCUUUCUUAGCAGUAUUUAGUGCUUUAAGGUUGCAGAAGCACACACUUAGAAGGGUAAGGUGAAAUGGCAUCUUCAACAGAGGAUUGAGCAUCA
B19: chr5:144009550:144009551:+_ENSMUSG00000029587_ENSMUST00000032591|mus_mus|motif|central (ssRNA)
RNA: GGGAGUUCUACAGUCCGACGAUCCAUCCAAAUUUACAGACAAUAAAUCUCUCUAUUGACACAUCAAAAUAAAUGAUUUCCGGAAUUCCACUUCUGAAUUGCAUAACUCCUACAGAGUGUAAUGGGGCACCAGGCUGUCCUGUUCAACAGAGGAUUGAGCAUCA
B20: chr17:24832259:24832260:-_ENSMUSG00000040888_ENSMUST00000046839|mus_hu|FALSE|FALSE (ssRNA)
RNA: GGGAGUUCUACAGUCCGACGAUCUCUUAGGUCUUCAGCACACUCCUCACAGGGGUAAAACUUAGAAAAUAAAUGUAUGAACUGGGCCAUGUCUUGCUGCUGUUCUGGGGUGGGCAGGUCGGGGUAGUAGGCGGCCAGGGUGUGCAACAGAGGAUUGAGCAUCA
B21: 79826794_79826914_537_CDS_ENSMUSG00000043881_ENSMUST00000061222|mouse|control|control (ssRNA)
RNA: GGGAGUUCUACAGUCCGACGAUCCACCAAGACCUCGAAGGACUCGGCAUCCACGUCGUGGAUCGUCACGCUGGCCUGCUGGCUCUCGUACAUGCCCCCCGUGAACAUGCUCUUGAAGUAGGGGCAAGCGGCCGCCAGCACGUUCAACAGAGGAUUGAGCAUCA
B22: chr18:56819859:56819860:+_ENSG00000166562_ENST00000588875|hu_mus|hu_hu_hu_mus_True|88_88 (ssRNA)
RNA: GGGAGUUCUACAGUCCGACGAUCAACCUUGAUUACUCUGUGAACUAUUGGAAUGUCUCUUCCUUCAACCUUAAAAACAACUAUUUCACCAGCUCUGAUGGGGUCCUCCCGGAAAUUCGUGAGGAACAGCAGAUCUCCUCUGUGCAACAGAGGAUUGAGCAUCA

What follows are binders tested against T1, UNK ZnF1-3 (assay: nsRBNS (natural sequence RNA bind-n-seq); RBNS binding buffer (assumed for nsRBNS): 25 mM Tris pH 7.5, 150 mM KCl, 3 mM MgCl2, 0.01% Triton X-100, 500 ug/ml BSA, 20 U/ml SUPERase-In, 4 C; UNK is unkempt and MSI1 is Musashi-1; names of the RNAs are library labels; protein concentration not given here; high values mean tight binding).
B1 showed a binding signal of 1.22 enrichment R. Binder B2 has a binding signal of 0.656 enrichment R. In the case of B3, the binding signal is reported as 0.725 enrichment R. For B4, the binding signal was 0.917 enrichment R. With B5 the binding signal was 1.04 enrichment R. In the case of B6, the binding signal is reported as 1.17 enrichment R. With B7 the binding signal was 0.802 enrichment R. B8 showed a binding signal of 1.22 enrichment R. B9 gave a binding signal of 1.23 enrichment R. B10 was tested, and the binding signal was 1.72 enrichment R. Work on B11 yielded a binding signal of 0.969 enrichment R. B12 gave a binding signal of 0.345 enrichment R. Binder B13 has a binding signal of 1.45 enrichment R. In the case of B14, the binding signal is reported as 1.04 enrichment R. B15 gave a binding signal of 1.57 enrichment R. With B16 the binding signal was 0.716 enrichment R. B17 showed a binding signal of 0.88 enrichment R. B18 was tested, and the binding signal was 1.54 enrichment R. B19 gave a binding signal of 1.02 enrichment R. Work on B20 yielded a binding signal of 1.56 enrichment R. For B21, the binding signal was 0.534 enrichment R. Work on B22 yielded a binding signal of 0.697 enrichment R.
